Results from the supplement of paper PMC3334620.
Over roughly 33,000 sequences, “E-score (-0.5 to 0.5)” has its median near -0.053; the highest 2% begin near 0.37. Some of the results follow.

Each sequence was assayed against Hap1 (UniProt P0CE41) (assay: PBM E-score (8-mer binding enrichment) (E-score (-0.5 to 0.5)); higher = stronger / more preferred TF binding; most listed sequences are background and not binding sites). Settings: protein concentration: 200 nM; construct: GST-DNA-binding domain.
Protocol: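 Universal 'all 10-mer' protein binding microarrays (Agilent AMADID 015681) probed with GST-tagged S. cerevisiae TFs (full-length or DBD) made by in vitro transcription/translation (PURExpress), about 100-200 nM. Bound TF was detected with fluorescent anti-GST. Each ungapped 8-mer (which stands for itself and its reverse complement) is scored by the PBM enrichment score (E-score), a modified Wilcoxon-Mann-Whitney statistic from -0.5 to +0.5, computed with the Universal PBM Analysis Suite. Scale: above 0.35 generally sequence-specific binding.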

Sequence of UniProt P0CE41 (P0CE41 whole entry, the tested form may be a part): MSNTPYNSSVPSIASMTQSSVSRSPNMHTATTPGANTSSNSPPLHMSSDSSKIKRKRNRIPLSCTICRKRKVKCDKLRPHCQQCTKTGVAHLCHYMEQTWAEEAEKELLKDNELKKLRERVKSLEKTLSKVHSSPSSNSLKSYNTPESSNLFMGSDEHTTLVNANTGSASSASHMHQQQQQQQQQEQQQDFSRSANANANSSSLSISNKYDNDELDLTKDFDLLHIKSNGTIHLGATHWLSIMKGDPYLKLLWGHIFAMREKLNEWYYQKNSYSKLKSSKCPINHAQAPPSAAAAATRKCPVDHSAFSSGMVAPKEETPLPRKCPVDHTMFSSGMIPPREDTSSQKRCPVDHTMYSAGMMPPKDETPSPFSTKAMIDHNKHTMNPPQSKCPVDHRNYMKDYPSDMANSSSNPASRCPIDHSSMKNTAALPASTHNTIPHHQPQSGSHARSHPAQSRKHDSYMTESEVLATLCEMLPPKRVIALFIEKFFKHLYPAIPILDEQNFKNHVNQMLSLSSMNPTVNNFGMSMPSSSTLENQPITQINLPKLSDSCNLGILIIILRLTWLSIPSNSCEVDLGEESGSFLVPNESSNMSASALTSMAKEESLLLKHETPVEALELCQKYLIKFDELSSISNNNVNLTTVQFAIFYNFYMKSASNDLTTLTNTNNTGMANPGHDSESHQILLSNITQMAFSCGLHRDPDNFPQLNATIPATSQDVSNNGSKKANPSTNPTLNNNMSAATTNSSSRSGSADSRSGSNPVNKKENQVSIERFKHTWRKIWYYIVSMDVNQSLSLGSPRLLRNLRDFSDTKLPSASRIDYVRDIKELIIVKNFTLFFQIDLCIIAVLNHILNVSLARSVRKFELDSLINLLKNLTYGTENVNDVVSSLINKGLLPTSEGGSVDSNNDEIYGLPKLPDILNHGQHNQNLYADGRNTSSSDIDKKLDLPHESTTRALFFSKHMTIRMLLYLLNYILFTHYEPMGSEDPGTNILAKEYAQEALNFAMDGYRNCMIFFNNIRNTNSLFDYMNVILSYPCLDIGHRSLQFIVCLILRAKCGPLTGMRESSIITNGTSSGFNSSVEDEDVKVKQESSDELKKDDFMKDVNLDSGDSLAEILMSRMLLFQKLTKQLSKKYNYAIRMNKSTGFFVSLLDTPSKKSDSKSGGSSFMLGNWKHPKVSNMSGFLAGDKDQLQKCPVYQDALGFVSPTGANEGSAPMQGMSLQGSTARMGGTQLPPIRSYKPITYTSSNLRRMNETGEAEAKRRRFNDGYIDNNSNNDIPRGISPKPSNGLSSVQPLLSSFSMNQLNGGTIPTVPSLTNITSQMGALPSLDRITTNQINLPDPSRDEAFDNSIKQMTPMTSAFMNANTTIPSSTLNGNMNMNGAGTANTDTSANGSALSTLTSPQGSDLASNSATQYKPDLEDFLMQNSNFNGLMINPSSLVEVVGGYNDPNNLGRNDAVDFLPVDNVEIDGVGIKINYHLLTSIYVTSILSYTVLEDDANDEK

Sequence	PBM E-score
GCTGCAGA	-0.161
GACACTTA	-0.119
ATGTCAAA	-0.0933
AAACACTT	-0.0452
GCCCCGGA	0.391
GCAACCCA	-0.304
ACACGCAA	-0.12
CGGGTCTA	0.288
AGTAGTGG	-0.0819
ACTGACCC	0.185
AGGCGGGC	0.0317
ACATGTCA	-0.224
AATTAGAA	-0.0308
ATAAAGGC	0.157
ACCCGTAC	0.0493
AGAACTCA	-0.157
AGATGGAT	-0.176
AGTCGTTC	-0.247
ACTCAAAA	-0.137
CACCTCGA	-0.0683
CCCAGGTC	-0.325
ATTCTTAC	0.0171
CCTGCGCC	-0.097
ATTAGAGG	-0.13
AAAACTCG	0.0961

Sequence	PBM E-score
TCACTGAA	0.0202
CATCTCTC	0.0672
CCCCAGAC	-0.159
ACGCAACG	0.0792
ATATAGAC	-0.105
CACCGTAA	0.0159
ATGGAGAA	0.0808
AGTCCGAC	0.36
AGAACGGA	0.168
GGAAATAC	0.343
AGCGTTAC	-0.204
CCTCGACA	-0.324
CTGTCAGA	-0.203
CTACAGTA	-0.196
CTGCAATC	-0.034
TAAGATGA	-0.2
ATCCGTAG	0.231
GACAATAC	-0.00034
CGAGAAAA	0.0489
CTAATCGC	0.14
GTGAGGTA	-0.0932
CAGCCACC	0.0173
AGTAATAT	0.0727
CTCAGACC	-0.0944
CACAAAAG	0.0205

Sequence	PBM E-score
CAGGGCTC	-0.246
TATGAACA	-0.26
GCGAGGCA	0.191
AAGACGCT	-0.234
ATTTAATA	0.0927
AAATGGAA	-0.124
GCGCTACC	0.0675
AAGAAGCA	-0.0174
TTATCAAA	-0.126
ACTCGAAT	-0.258
CGTAGCGA	0.142
AGATTATA	-0.0616
ATTCTCCG	0.394
AAACACGA	-0.061
ATTTTGTA	-0.0074
CACACGAG	-0.34
TCAGCGAA	-0.211
CAGCTTCA	-0.112
ATTGCGGA	0.242
CCGCAAGG	0.203
CTAACGCA	0.0325
GAGTCCAC	-0.0537
GATGGCAC	0.0991
AGTCTGAC	-0.278
AAAACTGA	-0.0492

Sequence	PBM E-score
GGTGGGTA	0.0278
CGCGACCA	0.189
CACGATTA	0.0453
ATCCTTCG	0.171
CCGCGGGA	0.341
ACCGTAAG	0.0557
AAGTCTCG	0.0946
CAAAAGTA	-0.151
ACTAACTA	-0.121
CCGGAGGA	0.432
ATGGGCTA	-0.125
AGTTGGGC	-0.098
GGTTTTTA	0.101
GACCGAAA	0.385
CTCTCCAA	-0.0734
ATGGCACA	-0.0544
CCGTTGAG	0.185
TCTTTTAA	-0.115
CAGCCCTC	-0.215
AGGCGGTG	-0.208
ACTAGCCG	0.0396
CCTCTGCA	-0.167
CTATGGCA	-0.228
TCATGCCA	-0.277
CGCTGAGC	-0.164

Sequence	PBM E-score
CCTACGAC	-0.095
TCGTAAAA	0.0494
ACACGGCC	0.231
CCAACCAA	-0.108
TCTCTGCA	-0.107
CCACATCG	0.0478
CGGGGATA	0.475
AAGTTGTA	-0.1
AAACAACA	-0.174
CGATTATC	0.112
ACGCCACC	-0.135
ATAATTTG	0.0462
TCTGAAGA	-0.275
CGGGGTCC	0.204
AGATCTCA	-0.158
GCTCGATA	0.0192
GAGAACGA	-0.0637
AAGGGTCG	0.0795
GTAGTGAC	-0.0754
CGCATCCA	-0.0122
CATCGACG	-0.0279
AGGCATTA	-0.08
GGCTGTAA	0.00796
GCTTATGA	-0.0915
GTTGTACA	0.123

Sequence	PBM E-score
GGCCATGA	-0.0169
GCCGTTGA	0.0494
ACAATAAA	0.0219
CCCGTTAA	0.297
GCTCGAGA	-0.172
ACGACGCT	-0.131
ATAGCTAC	-0.0962
AACATTGG	-0.102
AGACATCA	-0.105
CAGGGTTA	-0.245
ACTGTCAC	-0.11
AGGTGTTA	-0.173
CGACGTCC	0.0917
ACCGAATC	0.281
CTGCCACC	-0.0977
ACAAGCGC	0.11
TGTAGACA	-0.24
CATGATAA	-0.109
CGGCTCAG	0.173
CTGTTCTA	-0.0728
ACGCATAG	-0.0607
CTCGGAAC	0.31
ATCGTGTA	-0.113
ACGCATCT	-0.00302
GCATGTCC	0.133

Sequence	PBM E-score
CAGTCGCA	-0.183
CCTCGTTC	-0.0843
TATTACGA	0.139
ATATTGAT	0.0582
AATCCCAA	-0.0614
ATCAAACA	-0.127
CACACCTA	0.0418
CGGGGCCA	0.263
ACTGGCAT	-0.286
CAATTATG	0.0344
ACGCATAT	-0.0964
GGGACCAC	0.0623
AGGTACTG	-0.0971
ATTAGACA	-0.256
ACGGAGAT	0.445
AGCCGATG	0.233
AAATTAAC	0.0122
TTTCGAAA	-0.207
ATATTATG	0.0411
GTCGCTAA	-0.0711
ATATGCAA	-0.119
CCAACGAG	-0.194
